We go through 73 sequences from article PMC10726135.

The other results are listed elsewhere or left out. At the low end of the ranking, values are background and their order means little. The protein was read in a cell extract, so binding may be indirect.

This test deals with T1, HNF4alpha2 (COS-7 nuclear extract) (UniProt P41235).
T1 sequence: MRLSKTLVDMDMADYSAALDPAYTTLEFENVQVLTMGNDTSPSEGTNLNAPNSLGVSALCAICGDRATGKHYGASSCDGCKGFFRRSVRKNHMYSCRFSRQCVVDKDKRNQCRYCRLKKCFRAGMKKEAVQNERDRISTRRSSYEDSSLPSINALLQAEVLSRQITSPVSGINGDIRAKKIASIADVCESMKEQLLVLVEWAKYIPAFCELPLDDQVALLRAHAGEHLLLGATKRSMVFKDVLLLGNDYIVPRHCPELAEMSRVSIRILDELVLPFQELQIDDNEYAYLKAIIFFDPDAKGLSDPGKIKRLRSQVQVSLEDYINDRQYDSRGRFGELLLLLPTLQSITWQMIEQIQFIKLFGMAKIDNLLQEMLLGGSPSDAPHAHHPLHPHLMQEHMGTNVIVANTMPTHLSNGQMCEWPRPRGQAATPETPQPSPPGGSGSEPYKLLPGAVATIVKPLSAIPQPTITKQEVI
Description: protein-binding microarray. Particulars: COS-7 nuclear extract on double-stranded Agilent 4x180k PBM; binding buffer, salt, pH and temperature not given; high values mean tight binding; double strand, one strand shown; sequences stand for … in …GCCTAGGGAGATTAGAGTATCGGTCGA
Turning to TCGCACGGCAGAACTGGTGACCGGACACAA, the binding signal (log2 normalized intensity) was -1.05.
Then AGGGATTCCTGAAGATCGCAGACTTTGGAC, with 5.66; and TTCTAACCAATGCAGCTGGGAGATAAGATA, with -0.146.
Under TGGCTGCAGAGTGGGAGGCCAAGAGATAAA stands -0.785.
With CCCAAACGAATGGGCAAAACATTCCTAAAC, the binding signal (log2 normalized intensity) is -1.24.
Under CAGATGGATTGATAGACTTATCTCAGCCTG stands -0.761.
With GGTTTTAGGCTATCAGACAGCCACACTTTA, the binding signal (log2 normalized intensity) is -1.11.
Then GGGGAGCGTAAAACCACTGGCCCATTAGAA, with -1.08; and ACAGCTCCTGAGTCCACATGAGCCTCTTTA, with -1.18.
For the sequence TTTGACTGGTGTGAGGTCAGTTGATAAACA, the binding signal (log2 normalized intensity) came to 1.71.
Regarding TGTGTTTCCTGGATTGTGAAACACAGGACT, the binding signal (log2 normalized intensity) came to 0.725.
As for ATCCAAAGGTCAGTGACAAATGTCAGACAA, the binding signal (log2 normalized intensity) worked out at 2.35.
Turning to CTAATGGAGAGGATGGGGACAAAGGTCAAG, the binding signal (log2 normalized intensity) is 7.24.
Under CGCCAGGCGGGTTCTGCCATCTCGCAGAAA stands -1.16; under TGTCCTGTGATTAAGGTCAATGGGAAACTA, 1.01.
Under CCCCCTTTTGCTTTCCGTTAGGCTACAGTG stands 1.03; under GCCTAGGTGACAAGGAAAACTACACTCTTG, -1.19; under CAAACTCAATCCTGGCCTCTGAGGTGTTAA, 0.846.
With TTTGGGTTTGAAGGCTCCGGAAACGTATGA, the binding signal (log2 normalized intensity) was found to be 1.01.
Under TCCCTGTGGTATTTGCTCTGTCATCAACGT stands 1.37; under TTTGCTTTTTACCATCTCCAACATGACCAC, 1.85; under CTCCCAAAAGGTATTTTTTGAATGACAGTG, 1.32.
Turning to AGGCAGCCATTGACGGTATGTGAATGCCTG, the binding signal (log2 normalized intensity) was -0.874.
AAACGACTGATTCTCAGGCATCTCTGGGGG: the binding signal (log2 normalized intensity) is -0.853.
Then ATGAAGCAAGAGTCCAAATTCCTAGCCCTC, with 0.603; and CGGGTCAGCAGGGCACCGCCTCCACACCCC, with 1.59; and GAAACGTTTGAATTCTTGCCTATCCCATAG, with -0.656.
Then ATTTACTTACCTTTTCTAATCTCTCTCCCC, with 2.69.
Under GAGCAGCCTGGGGTAAAACCAAACTGCAGC stands -1.12; under GTGAAATGCCAGTGGGAAAACAAACTTTCC, -1.07; under AGGTCAAACTATCTGAGGTGGTCCAGGGCC, -1.13.
On to AGAAAGGCAGAAGGTTCCAGGGAACTGTCC, for which the binding signal (log2 normalized intensity) was -1.08.
Under TGGGCAATAAGCATTCTGTTTCCTACTGAC stands -1.22; under ATGCCTTTTCTTTCATGTTGTTTAGTCATG, 2.25; under AGCTAACATGTACAGTATTGCGTAAGTTGT, 1.67.
Under AGATCAAACAGGGACAGATGTTTGGTTGAG stands 1.07; under TTATTGATTGCCTTTCATGTACTGTTCAGT, 1.96.
Under TTTTAAGAGCCCATCCTTGTTTTGGGGGTT stands 1.2; under GCAGTCCATAAATGCTGTTGATAAAGTGAT, 0.948.
On to ATCAGTGTACCTGTCCCTACTCAATTATCA, for which the binding signal (log2 normalized intensity) was -0.287.
Under TTATCTTCCATGTATACTTATGTAGAAAGA stands 1.06.
With TGCGCCGCAGCGAATGGTCGCGCCGGGCGC, the binding signal (log2 normalized intensity) is -1.2.
Consider TTAGCTCATTTCAGCCTTAACTCAAAAGGC, for which the binding signal (log2 normalized intensity) is -1.16.
Under TTCTGCCTTATCAGCGGCCCTGTGCTGCCC stands 0.0914.
Under CCCCAGTGTCAATTCTCATTCATCCAAGGA stands 0.415; under GAGTGCTATCCTCTTATCTGAATGTATGGG, 1.87.
Under ATGGCTGAGCTGTAAGGACATAAGCACTGA stands -1.16; under GGAGGAGACAGCTACGGAATGCTTCCTGGA, -1.26; under TGCTCGGAACACGAGGTGAGAGGCGGAACA, 0.453.
Consider GTCTCAAAGTTCACCACTTTTGCAATGTTT, for which the binding signal (log2 normalized intensity) is 2.05.
Under GTAAAGGTGGTTTGGGTAATAACATGTAAT stands 0.896; under GGGTGCCTGATAATGACTCTTGAACCACAG, 1.49; under TTCTTTGTACCGTATTTCAGACCACCCAGT, 2.98.
Under AGGTCAAAGTGCAACTACAAGGAGCAGCCT stands 3.48; under CCTAAGCCTTATTATCTGCTTTTATGACCT, 3.06.
Then AAATATGTTCCACCCAGGGTGGCAGGCTCT, with -1.12.
Turning to AACTATGCAGTGTCCATGGTGACCATGTGA, the binding signal (log2 normalized intensity) amounted to 1.29.
Then ATTTGGCCACATCCTGTCTCCTTTAACCTT, with 2.12.
Under CTGTTTGACCAAAGCTACTCATCATGAACT stands -0.0277.
Then CTCAGAGCATATGTTGACCCGAGTGCCCTT, with 4.52; and AGGACTCAATGATACCATCAGATACCTACT, with -1.09; and GGTTTATTTTTATCTGTTTATTTTGCAATT, with 0.565.
AGGGAGGCCTAGACACAGACTCAAGTGAGG: the binding signal (log2 normalized intensity) is -1.17.
Consider ACACCGTCCAGAGGCTCCAAAGGACACTCC, for which the binding signal (log2 normalized intensity) is -1.03.
On to ACACAGGCGACCTTCGCTCGGCTCGCTCTC, for which the binding signal (log2 normalized intensity) is 1.92.
Regarding TCACAGAGCAGAGAAAATTCTAGATAACTC, the binding signal (log2 normalized intensity) is -1.29.
As for TGCAATGCGGAATGACATTCAGCAACTGGG, the binding signal (log2 normalized intensity) is -1.16.
Then GCTTTCTATTCAGACCTTCAACTATTTGGA, with 1.31; and AACTTCTCACCTTCAGATGCCATGTCTAAA, with 0.667; and AGCTTGAATCACTCACTGACCTCTTTTGGA, with 2.38.
Under CAGAGAGGTCAGCAAATGTGGACACTTTGA stands 0.903.
Under AAATGAAGTGGTATCCTGCAGTCAGTCTGA stands 0.109.
Consider TCTCACCAGACCAAGAGCTTAACCTTTGCC, for which the binding signal (log2 normalized intensity) came to 3.13.
